Results published in the supplement of paper PMC11417369.
The other results are listed elsewhere or left out.

Each sequence was assayed on PfHDP1 homeodomain (GST-tagged) (assay: gcPBM binding intensity (ln(normalized median fluorescence intensity)); higher = stronger DNA binding).
How it was run: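 Probes on an Agilent 4 × 180k array were primer-extended, double-stranded and 36 bp long, taken from intergenic genomic regions, with negative controls added. GST-tagged P. falciparum DNA-binding domains from E. coli, about 25 μg on average, were applied to the array for 1 h in 1× PBS containing 1% milk, 0.2 mg/ml BSA, 0.5% salmon testes DNA and 0.03% Triton X-100. Binding intensity, obtained after Alexa488 anti-GST antibody detection and a 488 nm scan, is the highest Masliner-normalised natural-log median intensity across replicate spots of either probe orientation.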

| Sequence | gcPBM binding intensity (ln) |
| --- | --- |
| TATAAATCTATAAATGCACACAAGGGAAGAAAAACG [CACACA_site2965] | 9.3 |
| AAAGAACAAATAAAACATAAAATAATATATATAGAT [CACACA_negctrl_site1764] | 6.63 |
| CAAACAATTAAACAAACACACATATACAAGTATATA [CACACA_site8639] | 6.45 |
| TATTATTCCAAGAAAAAAAAAAATAAAAAAAAAAAA [CACACA_negctrl_site1424] | 5.85 |
| ATAAATGACAAATTAACACACATATATTATAGATAT [CACACA_site7770] | 6.45 |
| TAATGCATTTTCGCATGTACATATTTCTCTTTATAT [XGTACX_site8915] | 6.47 |
| ATCTATATTTAATTTACACACAAAAAAAATTGTTGG [CACACA_site6582] | 6.73 |
| AAAATGTGATATGTAAATATATATGTATGTATATAT [CACACA_negctrl_site1748] | 6.49 |
| AATATATGAATTATATGTACATATAGATAAGTCACA [XGTACX_site7637] | 6.75 |
| TATTATAGAAATTTAATGTTGGACAAAAAAATGAAA [CACACA_negctrl_site1351] | 6.43 |
| TCTTAATATCGTTTCTCACACATATACAAACATAAA [CACACA_site5700] | 6.74 |
| AAATTATTTATTTTATGTACATATTATTAAAGTTAA [XGTACX_site552] | 6.26 |
| AGAGAGAAAGCTATAACATGCAACAATTTTTAGAAC [TGCATGCA_site596] | 6.7 |
| TTGCATTTTCTAGTAACACACAATTAGCGTTGCTGT [CACACA_site3594] | 6.46 |
| TAACAAAAAGGGAACACATGCGCTCTTTATTTATTT [TGCATGCA_site620] | 6.36 |
| TATAGAAGCATTCACACACACACATACATACACATA [CACACA_site1466] | 6.97 |
| ATAATATTAATATGTACACACCTTAATCCTTAAAAG [CACACA_site7640] | 6.61 |
| TATACCTGAATTAAAAGTACATGTATATATTTTCCC [XGTACX_site3594] | 6.24 |
| ATAATTTTTTAAGTGTGTACTAAAATGTGTATTTTA [XGTACX_site6227] | 6.76 |
| GTATTTATATGATTAACACACATATGGGTATTAATA [CACACA_site4853] | 6.44 |
| CTTAGAATATATGAATGTACTTTTTTTTTTAAATAA [XGTACX_site6048] | 5.8 |
| AGTATACAGATATATACACACATATATATATATATA [CACACA_site4323] | 9.34 |

| Sequence | gcPBM binding intensity (ln) |
| --- | --- |
| ATAATATATTTTTGTAGTACACTTCTGGTAATATCG [XGTACX_site2402] | 6.83 |
| AAAAAAAAAAATACTCGTACATAAACCTATACATTT [XGTACX_site6494] | 6.34 |
| CAATTAGCATTTTATTGTACATTTATAATCTATGAT [XGTACX_site1445] | 6.56 |
| TATATATATATATGTTGTACAAAAATGTAAAATATA [XGTACX_site7761] | 9.42 |
| ATACATATAAATAATTGTACTATTAAAAAAGAACGT [XGTACX_site3751] | 7.04 |
| TATATTTATAGGTATACACACATATGTATGTTATGT [CACACA_site7824] | 6.54 |
| TTATGTATTTATATAAATATAAATATATATATATAT [CACACA_negctrl_site774] | 8.87 |
| TTTCCCTTGTTGTAAACATGCACAATATTTAGGTAT [TGCATGCA_site49] | 8.22 |
| AAAAAAAAGAAAAACACACACATATATATATAGAAT [CACACA_site1006] | 6.83 |
| TAAGTAACTTTTAAAAGTACCCACACATATATATAT [XGTACX_site1231] | 8.55 |
| ACAAAAATAAACTATAGTACACACTTATTATTATGA [XGTACX_site5680] | 6.46 |
| TCATTTTATTTTTTCACACACACATCTATATTTATA [CACACA_site7547] | 6.89 |
| TTTCTTTTTTTTTTTTTTTTTTTTTTTTTTTTTTTT [TGCATGCA_negctrl_site91] | 7.23 |
| TTTCTTTTTTTATAATCCACATTGGGAAAATCAAAA [TGCATGCA_negctrl_site159] | 6.39 |
| ACGTATAATATGTACACACACATATATACAAAAAAA [CACACA_site917] | 6.66 |
| GTATAACTTTTGCGCGTACACACATTTATCCTCTTT [CACACA_site208] | 8.08 |
| AAAGTTGTTACGAACATACACACGAACATACTCACG [CACACA_site604] | 6.72 |
| TAGAATATCCCCTACACACCCAAATAATTTACAAAT [CACACA_site4825] | 7.29 |
| CATATATTATTATATGCACACATGAAAATATACAAA [CACACA_site2795] | 9.75 |
| AAAATATTTATTACTTCACACATTATTGTATTTATA [CACACA_site5082] | 6.5 |
| TTGAAATATACGTAAGTAAATTTCATTTGGTTGTGT [XGTACX_negctrl_site600] | 6.18 |
| TTCTTTCTGTTTTATTTATAATAATTTATGATAAAA [CACACA_negctrl_site766] | 6.81 |

| Sequence | gcPBM binding intensity (ln) |
| --- | --- |
| TGTTTTTAATTTCGCACACACCTTGTGGAAAAAAAA [CACACA_site4482] | 6.97 |
| AAGATATTTGAATATACACACGATTTAAATTTAATA [CACACA_site3866] | 6.45 |
| ATATATATATTTGTATGTACATATCATATTGTGTGT [XGTACX_site1580] | 8.16 |
| ATACGTGGGCAAAAAGTGCATATAATCAAAAAAAAA [GTGCAC_site9961] | 7.98 |
| TATGTATTTTTATGCACACATGCGTGGCTTATATAA [CACACA_site387] | 10.5 |
| ATATTTTCTTTAAATTGTACATATTGTGATACAAAA [XGTACX_site5886] | 6.53 |
| TATATACATACATGTAGTACCTAATTCGGTCCCGTA [XGTACX_site2702] | 6.24 |
| TTTCATTTAGCTTTTACACACTATATATTATTGATT [CACACA_site16] | 7.19 |
| ATTTTTTTTTTTTTTTTTTTTTTGTTTATACAAAAT [CACACA_negctrl_site1241] | 6.05 |
| TATATGTGTCTACAGGTGCATATATCATATATTGCT | 7.99 |
| ACACATACATATACATACACATTGTTTTCATGCATC [XGTACX_negctrl_site126] | 7.17 |
| TAAATAAATTTATACACACACACACGGATATAAATA [CACACA_site6532] | 6.91 |
| TATAAATATTTATACACACACATATATTTATATATC [CACACA_site6366] | 6.95 |
| AAATATAAAGGATTAATATTATATATATATATATAT [XGTACX_negctrl_site211] | 9.24 |
| GTATTATATATATAGGTGCATATATATATATAAATA [GTGCAC_site9787] | 9 |
| GTTTGGTGGTGTTTTGGTACGTACGGGGGGGTATGT [XGTACX_site1983] | 8.26 |
| TTTTTTTTTTTTTATTGTACTTATTTTTTTATGTTT [XGTACX_site7725] | 5.96 |
| ATTTACATAAATTGCATATATCGATGTAAATAAATA [CACACA_negctrl_site1150] | 6.71 |
| TCTTTTTAAACTAATAGTACATATATATTAATAAAT [XGTACX_site4217] | 6.2 |
| CATTTATTTTTGTTCTGTACATAAAGATGAACAAAA [XGTACX_site6797] | 6.29 |
| ATATATATATATATATGTACATATATTTATTTATTG [XGTACX_site6267] | 9.33 |
| TAATAATTTATAATAGTGCATTTGATTTTAAAAATA | 8.18 |

| Sequence | gcPBM binding intensity (ln) |
| --- | --- |
| TTTTTATGGTAAATAAAAATATCTCCCTCCTTAATT [CACACA_negctrl_site1352] | 6.01 |
| TTAAAAAAATATAATACACACCAAAAATATGCACAT [CACACA_site5209] | 10.3 |
| CATATATAACAATTCTCACACATAAAAAAAAAAAAT [CACACA_site4564] | 6.71 |
| AAAATAAAATATTTCTGTACTTATAACTATTCTATA [XGTACX_site8007] | 6.13 |
| ATAAAATGATAAATTTGTACACAAAAAAAAAAAAAA [XGTACX_site964] | 6.16 |
| GGGTATACAAATAAACGTACAAACTCATAAAAAAAA [XGTACX_site3191] | 6.33 |
| TAAATAAGCACATACACACATACATACATACATAAA [CACACA_site4017] | 6.95 |
| AACCCCGTGGAAATATGTACATATAAATATATAAAT [XGTACX_site2094] | 7.04 |
| AAATAAATCTTATGCACACAAATAATTAATTAAACA [CACACA_site1693] | 10.7 |
| TATTTTTTTCTTACATACTAATTTGGTACTCACATA [TGCATGCA_negctrl_site81] | 6.75 |
| AGAGTTCTCATATGCACACAAAAAACTTTCATTTAT [CACACA_site45] | 10.2 |
| TTTTTGCCATATTACACACACACATGTAAACCCCCT [CACACA_site1647] | 7.77 |
| GTGAAATATGCAAACACACACGAGAAAAATGTATAT [CACACA_site7488] | 6.99 |
| CAAAACAAAACGTATGCACACAATTAATATATTAAA [CACACA_site3405] | 9.45 |
| CATATAAAAATGTGCACACACACACCCATATATATT [CACACA_site1526] | 10.5 |
| AAAATTAATAAATAAACACACATATATATATATATA [CACACA_site2598] | 9.33 |
| TTGATTACACTGAAGTGTACATATATATATATATAT [XGTACX_site3532] | 9.42 |
| AATATCCACATTAGGAGTACACAGCTAACTGTTTGA [XGTACX_site3357] | 6.28 |
| AAATAATAAAAAAAATGTACACGTAAATATTATATT [XGTACX_site8125] | 6.99 |
| AAAAAAAAAAGAAACACACACATTTGTATATAATAT [CACACA_site2078] | 6.77 |
| TTTTATATAAAATCGTGTACATACCATTTCCTATTA [XGTACX_site5159] | 6.77 |
| TAGATAAACAAGAAATGTACAAACGTAAATATGTTC [XGTACX_site2373] | 6.18 |
